# According to PubChem BioAssay AID463173 (ICCB-Longwood Screening Facility, Harvard Medical School, 2010):
# Among all 52,000 compounds or so, about 4,300 (8.3%) were called active. Cut-off read from the data, not from the text of the source: active = survival mostly below about 52% (no sharp cut-off); inactive = mostly above about 56%. The list shows a part of the results.
# Test system: DeltatarO mutant
# Assay: S. aureus survival, RN4220 and DeltatarO strains – OD600, teichoic acid synthesis inhibitors, primary screen (AID 463173)
# Conditions: S. aureus RN4220 wild type/DeltatarO growth, OD600, 18 h, hits give low values, screened at 18.75 µg/mL (by protocol)
row,SMILES,survival
1,COc1ccc(NC(=O)C2=CC(c3ccco3)=NS(=O)(=O)N2C)cc1,inactive: 105%
2,Cc1ccccc1S(=O)(=O)Cc1ccc(C(=O)N2CCN(c3cccc(Cl)c3)CC2)o1,active: 54%
3,CC(NC(=O)C1CCN(S(=O)(=O)Cc2ccccc2)CC1)c1ccccc1 (centres undefined),inactive: 68%
4,CCCc1nc2ccccc2c(NC(=O)CN(CC)CC)c1CC,inactive: 70%
5,Cn1c(-c2ccc(NC(=O)c3ccccc3)cc2)n[nH]c1=S,inactive: 72%
6,Cc1cc(S(=O)(=O)N2CCN(Cc3noc(CCC(=O)N4CCCCC4)n3)CC2)ccc1F,inactive: 89%
7,CCCc1nn2c(=O)cc(COC(=O)c3ccc(NC(=O)COc4ccc(F)cc4)cc3)nc2s1,active: 37%
8,CN(C)c1ccc(CNC(=O)C2CCN(c3nc4ccccc4[nH]3)CC2)cc1,inactive: 63%
9,COC(=O)c1cc2occc2n1Cc1nc(-c2ccccc2)oc1C,inactive: 90%
10,CC(C)c1ccc(S(=O)(=O)N2CCC(n3c(C(F)(F)F)nc4cccnc43)CC2)cc1,inactive: 73%
11,CCOC(=O)c1oc2ccc(S(=O)(=O)n3nc(-c4ccc(C)cc4)cc3N)cc2c1C,inactive: 67%
12,COCCn1nnnc1CN(Cc1ccco1)Cc1cc2cc(OC)ccc2[nH]c1=O,inactive: 97%
13,COc1ccc(NC(=O)C2CCN(S(=O)(=O)c3cccc(-c4noc(C)n4)c3)CC2)cc1OC,inactive: 81%
14,Cc1cc(C)nc(NC(=O)C(c2ccccc2)c2ccccc2)n1,inactive: 115%
15,CCOCCn1ccc2c(OCC(=O)Nc3ccc(C(N)=O)cc3)cccc2c1=O,active: 37%
16,Cc1ccc(C(=O)NCC(c2ccc3c(c2)OCO3)N2CCOCC2)cc1C (centres undefined),inactive: 70%
17,CCOC(=O)c1cc(S(=O)(=O)Nc2cc(OC)ccc2OC)[nH]n1,inactive: 119%
18,O=C(CSc1cn(CC(=O)N2CCCC2)c2ccccc12)Nc1ccc(Cl)cc1,inactive: 84%
19,COc1ccc(Cl)cc1NC(=O)c1cc2c(=O)n3ccccc3nc2s1,inactive: 75%
20,COc1ccc(CNc2nc(-c3ccco3)nn2S(=O)(=O)c2ccc(Cl)cc2)cc1OC,inactive: 61%
21,Cc1cccc(NC(=O)Cn2cc(C(=O)C3CCCCC3)c3ccccc32)c1,inactive: 123%
22,CC(C)c1ccc(-c2nnn(CC(N)=O)n2)cc1,inactive: 85%
23,CCOC(=O)CC(NC(=O)CCc1c(C)nc2c(-c3ccccc3)c(C)nn2c1C)c1ccc(OC(C)C)cc1 (centres undefined),inactive: 66%

row,SMILES,survival
1,COc1ccc(Cn2c(CCC(=O)NCc3ccc(Cl)cc3)nc3cccnc32)cc1,inactive: 112%
2,COc1cc2c(-c3cccc(Cl)c3)nc3c(c(C)nn3-c3ccccc3)c2cc1OC,inactive: 75%
3,COc1cccc(CNC(=O)c2cnc3sc(N4CCCC4)nn3c2=O)c1OC,inactive: 91%
4,CSc1ccc(CCNC(=O)NCc2noc3ccccc23)cc1,inactive: 55%
5,Cc1ccc2cc(C#N)c(N3CCCN(C(=O)C4CCCCC4)CC3)nc2c1,inactive: 98%
6,O=C1Nc2ccccc2Oc2cc(Oc3ccccc3)ccc21,active: 33%
7,COc1ccc(NC(=O)c2sc3nc4c(cc3c2N)CN(Cc2ccccc2)CC4)c(OC)c1,active: 47%
8,COc1ccc(NC(=O)Cn2c(SCc3ccc(C)cc3)nc3cccnc32)cc1OC,inactive: 83%
9,Cc1ccc(C)c(CN2C(=O)c3ccccc3S(=O)(=O)c3ccc(C(=O)OCC4CCCO4)cc32)c1 (centres undefined),inactive: 94%
10,CN(c1ccccc1)S(=O)(=O)c1ccc(NC(=O)c2nc(S(C)(=O)=O)ncc2Cl)cc1,active: -1%
11,COc1ccc(-c2c(C#N)c(SCC(=O)Nc3ccccc3C)nc(C)c2C(=O)Nc2ccc(Cl)cc2)cc1,inactive: 160%
12,COC(=O)c1c(NC(=O)CCCOc2cccc(C)c2)sc2c1CCC2,active: 15%
13,Cc1cc(O)c(C(c2cccc(F)c2)N2CCN(c3ccccc3)CC2)c(=O)n1Cc1ccco1 (centres undefined),inactive: 66%
14,CCOCC(=O)Nc1nnc(CC)s1,inactive: 66%
15,Cc1cc(C)n(-c2nnc(Nc3ccc(C)c(C)c3)c3ccccc23)n1,inactive: 83%
16,O=C(Cn1c(=O)nc(-c2ccccc2)c2cc(Cl)ccc21)NCCCc1ccccc1,inactive: 54%
17,CCc1nn(CC(=O)NC2CC2)c(=O)c2cc3ccccc3n12,inactive: 120%
18,COc1cccc(CNC(=O)c2c3c(nc4ccccc24)C(=O)N(C2CCCCC2)C3)c1,active: 46%
19,Cn1cc(C(=O)NCc2ccccc2)c(=O)c2cc(S(=O)(=O)N3CCCCCC3)ccc21,inactive: 118%
20,CCc1ccc(OCC(=O)NCC(c2ccc(OC)cc2)N2CCOCC2)cc1 (centres undefined),inactive: 73%
21,CCSc1nc(=O)c2c(n1C)NC(=O)CC2c1ccc(O)cc1OC (centres undefined),inactive: 57%
22,Cc1cccc(C)c1NC(=O)CN(C)S(=O)(=O)c1ccc2c(c1)n(C)c(=O)c(=O)n2C,inactive: 89%
23,CC(=O)c1cccc(NC(=O)Cn2c(C)c3cnn(-c4ccccc4)c(=O)c3c2C)c1,inactive: 114%

row,SMILES,survival
1,Cc1ccc2c(CNC3CCC(C)CC3)c(C(=O)O)n(Cc3cccc(F)c3)c2c1 (centres undefined),inactive: 90%
2,CCN(CC)CCNC(=O)c1ccc2c(c1)N(Cc1ccccc1)C(=O)c1ccccc1S2=O (centres undefined),inactive: 140%
3,COc1ccc(-n2c(=O)c3sc4ccccc4c3n(Cc3ccccc3)c2=O)cc1,inactive: 84%
4,COc1cc(NC(=O)c2cc3nc(-c4ccccc4)cc(-c4ccccc4)n3n2)c(OC)cc1Cl,inactive: 64%
5,CC1CCN(c2nc3ccc(C(=O)NCc4ccc(Cl)cc4)cc3s2)CC1,inactive: 128%
6,O=C1C2C3C=CC(C3)C2C(=O)N1CCN1CCN(S(=O)(=O)c2cccs2)CC1 (centres undefined),inactive: 66%
7,COc1ccc(C(=O)Nc2ccc3nc(SCC(=O)N4CCOCC4)sc3c2)cc1,inactive: 82%
8,COC(=O)c1ccc(OC)c(Cn2c(=O)n(-c3ccc(C)cc3)c(=O)c3c2cnn3C)c1,inactive: 68%
9,COc1ccc(C2CC(=O)N(CC(=O)Nc3ccc(C(F)(F)F)cc3)c3ccccc3S2)cc1 (centres undefined),inactive: 88%
10,CCCCc1ccc(Nc2ncnc3c2cnn3-c2ccc(C)cc2)cc1,active: 17%
11,CCC1CCCCN1C(=O)Cn1c(=O)n(CC2CCC(C(=O)NC)CC2)c(=O)c2sccc21 (centres undefined),inactive: 102%
12,COc1cc(OC)c(NC(=O)c2cc(S(=O)(=O)N3CCCC3)cn2C)cc1Cl,inactive: 66%
13,CC(NC(=O)CSc1n[nH]c(-c2ccccc2)n1)c1nc2ccccc2n1C (centres undefined),inactive: 80%
14,Cc1ccc(S(=O)Cc2nc(-c3ccc(C(=O)NC(C)c4ccccc4)cc3)oc2C)cc1 (centres undefined),inactive: 88%
15,Cc1ccc(CN2C(=O)C(C)(C)Oc3ccc(C(=O)NC4CC4)cc32)cc1,inactive: 95%
16,O=C(Nc1ccc(OC(F)(F)F)cc1)NC1COc2ccccc2C1 (centres undefined),active: 0%
17,C=CCC(C#Cc1ccccc1)N(C)C (centres undefined),inactive: 94%
18,COc1ccc(Cl)cc1S(=O)(=O)Nc1cccc(-c2ccc(N3CCOCC3)nn2)c1,inactive: 97%
19,O=C(/C=C/c1ccccc1)N1CCCC1=O,inactive: 94%
20,Cc1ccc2c(c1)nc(SCC(O)c1ccc(Br)cc1)n2C (centres undefined),inactive: 70%
21,COc1ccc(N2CCN(Cc3nc4c(c(=O)[nH]c(=O)n4C)n3Cc3ccccc3)CC2)cc1,inactive: 112%
22,Cn1c(=O)c2sccc2n2c(CCC(=O)NCc3ccccc3)nnc12,inactive: 135%
23,CC(C)=CC1C(C(=O)Nc2ccc(Cl)cn2)C1(C)C (centres undefined),inactive: 70%

row,SMILES,survival
1,Cc1ccccc1Oc1nc2c(c(=O)n(C)c(=O)n2C)n1Cc1ccc(Br)cc1,inactive: 143%
2,Cn1c(N2CCN(S(=O)(=O)c3ccc(Cl)cc3)CC2)nc2ccccc21,inactive: 83%
3,CCC(NC(C)=O)c1ccccc1 (centres undefined),inactive: 71%
4,COc1cc(-c2nnc(SCC(=O)NC(C)C)o2)cc(OC)c1OC,inactive: 111%
5,CCOc1ccc(CCNC(=O)C2Cc3ccccc3N2C(=O)CC)cc1OCC (centres undefined),inactive: 93%
6,CC(=O)c1ccc(NC(=O)CSc2ccc3nc(-c4ccccc4)cn3n2)cc1,inactive: 89%
7,CN(C)c1ccc(CNC(=O)C(Cc2ccccc2)NS(=O)(=O)c2ccc3c(c2)oc(=O)n3C)cc1 (centres undefined),inactive: 83%
8,Cc1ccc(N(CC(=O)Nc2ccc(Br)c(C)c2)S(=O)(=O)c2cccs2)cc1,inactive: 69%
9,NC(=O)c1c(O)c2c([nH]c1=O)CCCC2,inactive: 80%
10,COc1cccc(CCNc2ncnc3c2nnn3C)c1,inactive: 83%
11,O=C(CCCn1c(=O)c2ccccc2n(CC(=O)Nc2ccc(F)cc2F)c1=O)NCc1ccccc1Cl,inactive: 97%
12,O=C(NCc1ccc(F)cc1)c1cc2c(s1)-c1ccccc1SC2,active: 45%
13,COc1ccc(NC(=O)c2cc3c(=O)n(Cc4ccco4)ccc3nc2C)c(OC)c1,inactive: 81%
14,CCCCOC(=O)c1ccc(NC(=O)/C(C#N)=C/c2ccc(-c3ccccc3)o2)cc1,active: 32%
15,COc1cc2c(=O)n(CCC(=O)NCC3CCCO3)c(=O)n(CC(=O)Nc3c(C)cccc3C)c2cc1OC (centres undefined),inactive: 63%
16,COc1ccc(OC)c(NC(=O)C(CCSC)NS(=O)(=O)c2cccs2)c1 (centres undefined),inactive: 88%
17,COc1ccc(-c2nc(SCC(=O)N3CCC(C)CC3)n[nH]2)cc1,inactive: 134%
18,COc1ccc(C(=O)Nc2ccc(C(=O)OCc3cc(=O)n4nc(C(C)C)sc4n3)cc2)cc1,inactive: 94%
19,Cc1ccc(Cl)cc1NC(=O)/C(C#N)=C\c1cn(Cc2ccc(F)cc2)c2ccccc12,inactive: 98%
20,CCOC(=O)c1c(S(=O)(=O)NCC(=O)NCc2ccc(C)cc2)c(C)n(C)c1C,inactive: 91%
